Laboratory results: the supplement of paper PMC3334620
In all, about 33,000 sequences were measured (“E-score (-0.5 to 0.5)”: median about -0.056, highest 2% from about 0.38 on). This is one part of the list.

Biological target: Stb4 (UniProt P50104)
Experiment: PBM E-score (8-mer binding enrichment) (E-score (-0.5 to 0.5)); higher = stronger / more preferred TF binding; most listed sequences are background and not binding sites
Conditions: protein concentration: 200 nM; construct: GST-DNA-binding domain
Procedure, shortened: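 Masliner-normalised scans of fluorescent anti-GST signal were the basis for scoring. That signal came from GST-tagged yeast transcription factors applied at about 100-200 nM to double-stranded universal all-10-mer Agilent arrays on fresh or once-stripped slides. Each ungapped eight-base word, pooled with its reverse complement, received an E-score from the Universal PBM Analysis Suite.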

Row | Sequence | PBM E-score
1 | CTAATGTC | -0.021
2 | ATATCCGC | 0.389
3 | AGTTGTTC | -0.00774
4 | CAAAAAGG | -0.284
5 | GTACGGAA | 0.323
6 | CATAGGCG | -0.143
7 | TACACCTA | -0.142
8 | CCTTCCAA | -0.163
9 | GTATAGCA | -0.0389
10 | GGGCAAAA | 0.165
11 | ACGGGCAT | 0.0437
12 | GAACGCTA | 0.0146
13 | GCAGGGAC | -0.302
14 | GCTAGAGC | -0.0524
15 | CACAGTAC | -0.263
16 | CTCCATTC | -0.26
17 | CTACGGTC | -0.0388
18 | AAATCATT | -0.067
19 | AGAATCCC | 0.11
20 | CTCGGGGC | 0.291
21 | CCCTTTTC | -0.147
22 | ATTGCTCC | 0.136
23 | CAGTCCGG | 0.22
24 | CACAACAC | -0.197
25 | CTCGGATC | 0.481

Row | Sequence | PBM E-score
26 | CAACTCTG | -0.0468
27 | AACAGACC | 0.0491
28 | CGTTATCC | 0.196
29 | CCTGACCG | 0.017
30 | CATTCGCC | -0.0759
31 | AAAGATTT | 0.0492
32 | CCGGTGCC | 0.248
33 | AACCCGGA | 0.375
34 | ATGCCATC | -0.0233
35 | ACCTAGCC | 0.0163
36 | AGGCTGTG | -0.155
37 | GTTCAGTA | -0.196
38 | ACGCGGTA | 0.129
39 | GCATATAC | -0.117
40 | ACTACAAA | 0.00768
41 | TTAGCTAA | -0.013
42 | ACCACAAG | -0.0565
43 | CGGTCCGC | 0.26
44 | ACGATCCG | 0.399
45 | ATTGCGTG | -0.0514
46 | GGTCGAGA | -0.15
47 | ATGTCGAG | -0.207
48 | TAATCGTA | -0.218
49 | CCCAAAAA | -0.0931
50 | AGAGGATC | -0.111

Row | Sequence | PBM E-score
51 | TCCTGAGA | -0.136
52 | AAGTAATA | -0.0278
53 | GTCCACAA | -0.193
54 | GCACACAC | -0.077
55 | ACCTAATG | -0.322
56 | CCGCCTAC | 0.0518
57 | CCAAGAAC | -0.274
58 | AGTTCAAT | -0.128
59 | CTTGCAGC | -0.153
60 | AACGTAAG | -0.148
61 | GATTCTGA | 0.0101
62 | ATCTTTAC | -0.0733
63 | CAATACTG | -0.107
64 | CACCTACA | -0.241
65 | ATTAGATC | -0.0358
66 | GCAAGCTA | -0.151
67 | AACTGACT | 0.0534
68 | GCGTACAC | -0.0796
69 | ATCGGATG | 0.451
70 | ACCTACTC | -0.111
71 | AGCCGGCC | 0.234
72 | AAGCTTGA | -0.101
73 | AAGTCAGA | -0.0753
74 | CACGGTCA | -0.197
75 | GAAATATC | 0.205

Row | Sequence | PBM E-score
76 | AGTATGTC | -0.193
77 | GCCCAAAC | -0.0909
78 | ACGACGAA | 0.004
79 | ACTCTACT | -0.165
80 | CCCCCAGA | -0.221
81 | AGAGAAGA | -0.105
82 | TTGAAAAA | -0.13
83 | AAAGTCTT | -0.0539
84 | CGTAATTC | 0.0682
85 | AACTTATG | -0.174
86 | ATTGCGTC | 0.0402
87 | CACCCAAC | 0.00076
88 | CTTAACCC | -0.0251
89 | ACTTGCAG | -0.117
90 | CGCCAGTC | -0.0588
91 | ATAAGCTA | -0.0721
92 | ATGGCCAG | -0.181
93 | AGCGAAAA | -0.0577
94 | TCAACGAA | -0.164
95 | ACTTTCCC | 0.121
96 | CTTGTTTA | -0.0352
97 | CAATCTTA | -0.0555
98 | AACGCGGT | 0.0644
99 | GTATGCCA | -0.0642
100 | CCGTGATC | 0.156

Row | Sequence | PBM E-score
101 | ACCTTGCA | -0.223
102 | ACCAGCGG | 0.0303
103 | AAAGAGAA | -0.14
104 | CCCTTTCC | 0.067
105 | ACCAACAA | 0.017
106 | CCTCAAGA | -0.0159
107 | AGGTAACT | -0.211
108 | GCCATAGC | -0.221
109 | CCTGTAAC | -0.187
110 | AAATCATC | -0.0728
111 | AAAAATGT | 0.0927
112 | AGACTCTG | -0.238
113 | CCCAACAC | -0.155
114 | CACTATGA | -0.193
115 | ACTATAAT | -0.166
116 | AGGAAATC | 0.15
117 | CCACAAAA | 0.0182
118 | ACGTTGCG | -0.0806
119 | AGCAGTGG | -0.211
120 | AGGTCTGA | -0.231
121 | TTATCCAA | -0.139
122 | GACGGAAC | 0.317
123 | AACGCCGA | 0.372
124 | CTGCGACC | -0.176
125 | GGACAATA | 0.132

Row | Sequence | PBM E-score
126 | ATAGCGGA | 0.205
127 | CTAGCTTA | -0.136
128 | AGCGGAAC | 0.316
129 | GACAGCGC | 0.0726
130 | CCTTGCCG | 0.241
131 | AGAAAAAT | -0.104
132 | ACTCGAGG | -0.152
133 | GTTGTATA | -0.245
134 | AAGTAGCT | -0.251
135 | AAGAGGCA | -0.186
136 | AATGATCC | 0.207
137 | AGAACAAG | -0.146
138 | CCAAGCAA | -0.218
139 | AGTTAGAG | -0.174
140 | CTGTTTCC | 0.0989
141 | CACGTGCC | -0.0363
142 | AGAATTGA | -0.194
143 | GTTAGTGA | -0.102
144 | AAAGTCGG | 0.269
145 | ACGTGTGC | -0.303
146 | CTTTAGCA | -0.0369
147 | CGGAAGAC | 0.367
148 | AAGTTGGA | -0.167
149 | ACATGTGG | -0.0365
150 | GCCTTAAA | 0.0358

Row | Sequence | PBM E-score
151 | ACGCCCAT | 0.0322
152 | CACTATTA | 0.0788
153 | CATCAGAC | -0.0986
154 | CGTTAGGA | 0.0354
155 | CGGTTTAA | 0.101
156 | CCATGAGG | -0.0279
157 | GCAGAAAA | -0.0365
158 | CGATATTA | 0.2
159 | ACCCATGG | -0.149
160 | CTTTCATC | -0.112
161 | TCATACGA | -0.145
162 | CGCGGCCC | 0.146
163 | GAGCTGAC | 0.101
164 | CAGATTCA | -0.165
165 | ACCCTTCC | 0.227
166 | GTGGTAAA | -0.111
167 | GATTCTGC | 0.106
168 | ACTTCGGC | 0.392
169 | GCGATCGA | -0.0399
170 | ATCAAACG | -0.105
171 | ATCCCGAT | 0.342
172 | GCTAATTA | 0.173
173 | ATTGAAAA | 0.0585
174 | ATTACTGC | -0.0877
175 | AGCTCCCA | -0.112

Row | Sequence | PBM E-score
176 | GTAGAGAA | -0.0411
177 | CCAACTAA | -0.21
178 | CCAGAATA | 0.0555
179 | AAAAACTC | -0.0412
180 | AACATCTA | -0.0411
181 | ACCGTGCA | -0.142
182 | CCACTTCA | -0.155
183 | CACGGTCC | -0.0699
184 | AATCATGT | -0.272
185 | GGTCCTCA | -0.0447
186 | ACATAACA | 0.157
187 | AGGTGACA | -0.128
188 | AATGGCAG | -0.196
189 | AGTCACCA | -0.213
190 | ATATTTGA | -0.16
191 | ATGCCTTA | -0.32
192 | GAGTTTGC | 0.0913
193 | CACTTAAG | -0.0395
194 | CTAAGCTC | -0.163
195 | ATGGTGCG | -0.0712
196 | ACGGCCCT | -0.219
197 | GCCCATGA | -0.124
198 | GCACGCCC | -0.00802
199 | ACTGTCTC | -0.0619
200 | TCTGGACA | -0.0785

Row | Sequence | PBM E-score
201 | ATTGTGCG | -0.037
202 | ACAGAGCG | -0.258
203 | ACTTAAGT | -0.18
204 | AGGATTCG | 0.0771
205 | AGCTTCGA | -0.189
206 | CATGAGTA | -0.0198
207 | CCCGTCTA | 0.167
208 | CGATTAAC | 0.125
209 | CATTACCG | 0.277
210 | GAGGGGAC | 0.0324
211 | ACAGACCG | 0.164
212 | ACACATCA | -0.0472
213 | TAGGCGCA | -0.171
214 | CCATGGCA | -0.225
215 | CACAATCG | 0.181
216 | ACCCGGGA | 0.378
217 | GCGGAGTA | 0.146
218 | GAAACAGC | 0.0269
219 | CCGCTAAC | 0.152
